Laboratory results from PubChem BioAssay AID652104 (National Center for Advancing Translational Sciences (NCATS), 2013).
Screen size: about 410,000 compounds; about 7,200 (1.8%) were called active. Inconclusive means that the source gave no clear call. Such entries were picked first, then a sample of the others. The call rests on the fitted dose curve; in most records, active means well fitted activation curve with a large enough effect; inconclusive means small, poorly fitted or top-dose-only effect, or another doubt; inactive means no such curve, though single readings can be large or run the other way. No potency is given beside an inconclusive call; the fits are too rough.

Assay: qHTS of TDP-43 Inhibitors; further: nearly all actives have a fitted effect of over 50% in size
Settings: TDP-43 expressing yeast growth rescue, BacTiter-Glo, 24 h; series mostly up to 46.1 µM
Outline: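 Luminescence from BacTiter-Glo reports growth of TDP-43-expressing yeast after 24 hr at 30 deg C with compound. Cells were raffinose-pregrown to mid-log, then seeded in galactose medium at OD600=0.02.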
Potency means the concentration at half of the fitted maximal effect; tags describe the fitted curve by direction and shape.

| Structure (SMILES) | Potency |
| --- | --- |
| Cc1c(/C=N/O)c2ccccn2c1C(=O)c1ccc(F)cc1 | inconclusive [activator, full curve] |
| CCCCC(=O)Nc1ccc(C(=O)NNC(=O)c2ccc(C)c(Br)c2)cc1 | inactive |
| CCOC(=O)c1cc(-c2ccccc2)nn1CC1CC(c2cccc([N+](=O)[O-])c2)=NO1 (stereo unspecified) | inconclusive [activator, partial curve] |
| O=C(c1ccc(F)cc1)n1nc(-c2ccc(Cl)cc2)nc1NCc1ccco1 | inconclusive [activator, partial curve, poor fit] |
| O=C(/C=C/c1ccc2c(c1)OCO2)NCCSCc1ccc(Cl)cc1Cl | inconclusive [activator, partial curve] |
| CC1=C(C(=O)Nc2ccccc2)C(c2cccs2)n2nc(SCc3ccccc3)nc2N1 (stereo unspecified) | inactive |
| Cc1ccc(S(=O)(=O)NCCC(=O)OCc2ccc([N+](=O)[O-])cc2)cc1C | active: 20 µM |
| O=C(O)c1ccc(CP(=O)(c2ccccc2)c2ccccc2)cc1 | inactive |
| CCCN(CCC)c1ncnc2c1cnn2-c1ccc(OC)cc1 | inconclusive [activator, single point] |
| O=C(NCc1ccc(Cl)cc1)C(=O)NCC1OCCN1S(=O)(=O)c1cc(F)ccc1F (stereo unspecified) | inconclusive [activator, single point] |
| COc1cccc(OC)c1OCC(=O)Nc1ccc(S(=O)(=O)N2CCCC2)cc1 | inconclusive [activator, partial curve] |
| CC(=O)N1c2ccc(S(=O)(=O)NCCC(=O)Nc3ccc(C)cc3Br)cc2CC1C (stereo unspecified) | inactive |
| CCc1ccc(CNC(=O)c2ccc3c(c2)nc2n3CCCCC2)cc1 | inactive |
| Cc1ccc(C(=O)NCC(=O)OCC(=O)Nc2ccc3[nH]c(=O)[nH]c3c2)cc1 | inactive |
| Fc1ccccc1C1=NC(c2ccc(C(F)(F)F)cc2)=Nc2ccccc2N1 | inconclusive [activator, partial curve] |
| Cc1[nH]c2ccccc2c1/C=C(\C#N)C(=O)NC(C)c1ccccc1 (stereo unspecified) | inconclusive [activator, single point] |
| CC(C)N(Cc1ccccc1)C(=S)NCc1ccccc1 | inconclusive [activator, partial curve, poor fit] |
| Cc1ccc([N+](=O)[O-])cc1NC(=S)NC(=O)CC(C)(C)C | inconclusive [activator, single point] |
| COc1ccc(CC(=O)N2CCc3cc(OC)c(OC)cc3C2)cc1 | inactive |
| O=C(CCC1CCCN(C(=O)c2ccco2)C1)NCc1ccccc1F (stereo unspecified) | inactive |
| O=C(NCCc1ccccc1)c1n[nH]c2ccccc12 | inconclusive [activator, partial curve] |
| C=COC(=O)NC1CCc2cc(OC)c(OC)c(OC)c2-c2ccc(SC)c(=O)cc21 (stereo unspecified) | inconclusive [activator, partial curve] |
| Cc1cc(C(=O)OCn2nnc3ccccc3c2=O)c(C)o1 | active: 14.1 µM |
| COc1ccc(/C=N/Nc2nc(-c3ccc(Cl)cc3)cc(C(F)(F)F)n2)cc1OC | inconclusive [activator, single point] |

| Structure (SMILES) | Potency |
| --- | --- |
| O=C(CSc1nnnn1-c1ccc(O)cc1)c1ccc(F)cc1 | inactive |
| O=C(Nc1nc2ccc(Br)cc2s1)c1ccco1 | inconclusive [activator, partial curve] |
| O=C(C1CCCCC1)N(Cc1cccnc1)c1nc2ccc(F)cc2s1 | inconclusive [activator, partial curve] |
| CCCCn1c(NC(=O)CC)c(C#N)c2nc3ccccc3nc21 | inactive |
| CC(C)c1ccc(/C=C(\C#N)c2nc(-c3ccc(O)cc3)cs2)cc1 | inconclusive [activator, single point] |
| O=C(OCc1nnc(-c2cccs2)o1)c1cccnc1Cl | inconclusive [activator, partial curve, poor fit] |
| N/C(=N\OC(=O)c1ccc2ccccc2c1)c1cccc([N+](=O)[O-])c1 | active: 22.4 µM |
| Cc1nn2c(-c3ccc(Cl)cc3)nnc2s1 | inconclusive [activator, partial curve] |
| Cc1nc(NCCc2ccccc2)c2oc3ccccc3c2n1 | active: 11.2 µM |
| COc1ccc(C(=O)Nc2ccccc2C(=O)OCc2cc(=O)n3nc(C4CC4)sc3n2)cc1 | inactive |
| Cc1noc(C)c1COc1ccc(C(=O)OCc2nnc(-c3ccc(Cl)cc3)o2)cc1 | inconclusive [activator, single point] |
| COc1cccc(-c2cc3nc(-c4ccccc4)cc(N4CCCC(O)C4)n3n2)c1 (stereo unspecified) | inconclusive [activator, single point] |
| Cc1cccc(N(C)S(=O)(=O)c2nnc(NC(=O)C3CCCCC3)s2)c1 | inconclusive [activator, full curve] |
| O=C(CSc1nc2ccccc2nc1Cc1ccccc1)N1CCCc2ccccc21 | inconclusive [activator, full curve, poor fit] |
| O=C(NC1CCCCC1)C(c1ccc(F)cc1)N(C(=O)c1cccs1)c1ccc2c(c1)OCO2 (stereo unspecified) | inactive |
| Nc1ccn([C@@H]2O[C@H](CNCC3=CCOc4ccc(O)cc43)[C@@H](O)[C@H]2O)c(=O)n1 | inconclusive [activator, partial curve] |
| CC1(C)OC(=O)C(=NNc2ccccc2[N+](=O)[O-])C(=O)O1 | inconclusive [activator, single point] |
| O=C(/C=C/c1ccnc2ccccc12)c1cccs1 | active: 3.55 µM |
| C/C(Cn1nnc([N+](=O)[O-])n1)=N\NC(=O)c1ccc(C)cc1 | inconclusive [activator, partial curve] |
| Cc1ccccc1NC(NC(=O)c1cccs1)C(Cl)(Cl)Cl (stereo unspecified) | inconclusive [activator, single point] |
| CCOc1ccc(NC(=O)c2cccc(-n3cnnn3)c2)cc1 | inconclusive [activator, single point] |
| Cn1ccc2cc(S(=O)(=O)N3CCN(C(=O)Nc4ccccc4F)CC3)ccc21 | inconclusive [activator, single point] |
| O=S(=O)(c1ccccc1)N1CCCC1c1nc2ccccc2s1 (stereo unspecified) | inconclusive [activator, single point] |
| CCOC(=O)c1cnc(SCc2cccc(C)c2)nc1N | inconclusive [activator, single point] |

| Structure (SMILES) | Potency |
| --- | --- |
| FCCCOc1ccc(-c2nccc(-c3ccccn3)n2)cc1 | inconclusive [activator, partial curve] |
| OCCN1CCN(Cc2cc(Cl)c3cccnc3c2O)CC1 | inconclusive [activator, single point] |
| CCOc1ccc(/C=N/n2c(C3CCCCC3)n[nH]c2=S)cc1 | inconclusive [activator, single point] |
| CCCCCCSc1ccc(-c2nc3ccccn3c2NCCCC)cc1 | inactive |
| Cc1ccc(-c2cc(C(F)F)nc(NCC3CCCO3)n2)cc1 (stereo unspecified) | inconclusive [activator, single point] |
| O=C(Nc1cccnc1)c1cn(-c2ccccc2)nc1-c1cccs1 | inconclusive [activator, single point] |
| COCCN(C(=O)COC(=O)c1ccc(C=O)cc1)c1c(N)n(Cc2ccccc2)c(=O)[nH]c1=O | inconclusive [activator, partial curve] |
| COc1ccc(O)c(C(=O)c2cnc3c(c2)c(-c2ccc(F)cc2)c(C#N)c(=O)n3C)c1 | inconclusive [activator, partial curve, poor fit] |
| CCCCCc1nnc(NC(=O)Cc2cccs2)s1 | inconclusive [activator, partial curve, poor fit] |
| Cc1ccc(C)c(OCc2cc(C(=O)N(C)Cc3ccccn3)no2)c1 | inconclusive [activator, single point] |
| CC(C)N1CCN(Cc2cc3ccccc3[nH]2)CC1CCO (stereo unspecified) | inactive |
| COc1ccc(NC(=S)NCCc2ccccc2OC)c(OC)c1 | inconclusive [activator, single point] |
| CCOC(=O)C1CCN(C(c2cc3c(C)ccc(C)c3[nH]c2=O)c2nnnn2C2CCCCC2)CC1 (stereo unspecified) | inactive |
| COc1ccc(-c2nc3c4ccccc4ccn3c2Cc2ccccc2C(F)(F)F)cc1OC | active: 20 µM |
| Cc1ccc(C)c(N2CCN(C(=O)c3ccccc3Br)CC2)c1 | inactive |
| O=C(NCCCl)C1Cc2c(ccc3ccccc23)O1 (stereo unspecified) | inconclusive [activator, partial curve] |
| Cc1ccc(C2=NNC(=O)C(c3ccc(Cl)cc3)C2)cc1 (stereo unspecified) | active: 22.4 µM |
| Cc1nn2cnnc2c(C)c1Cc1c(F)cccc1Cl | inconclusive [activator, single point] |
| COc1ccc(/C=N/OC(=O)Nc2ccccc2)cc1[N+](=O)[O-] | inconclusive [activator, single point] |
| COc1ccc(C(=O)CCC(=O)Nc2cc(C)ccc2C)cc1 | active: 11.2 µM |
| COc1ccc2c(c1)O[C@H]1c3ccc(O)cc3OC[C@@H]21 | inconclusive [activator, single point] |
| CC(C)c1cccc(C(C)C)c1NS(=O)(=O)c1cccs1 | inactive |
| O=C(COc1cc(F)ccc1[N+](=O)[O-])NCCCc1ccccc1 | active: 12.6 µM |
